“And” between values parts separate entries of the source, which are not always exact repeats. Equal values may be shown once. For part of these data: A note “side channel” means that the fit belongs to a control or component signal, not to the main read-out. More than one record can exist for a structure, and the calls need not agree. The source made the active and inactive calls. Unless noted, calls follow the shape of the dose curve; as a rule, active = well fitted curve in the direction sought with a large enough effect; inconclusive = small, poorly fitted or top-dose-only effect, or another doubt; inactive = no such curve, though single readings can be large; an effect the other way counts as inactive or inconclusive.
Key:
[1] = MultiTox-Fluor Cytotoxicity Assay - LYMP1-002 - Dead Cells (AID 960); conditions: LYMP1-002 lymphoblastoid cells, dead-cell protease fluorescence; cytotoxicity (dead cells): at 46.1 µM (top of the series); also: nearly all actives have a fitted effect of over 60% in size; also: potency is read from the fitted curve at half-maximal effect;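 as to cytotoxicity (dead cells): 0% = DMSO and 100% = tetraoctylammonium bromide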
Outline: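 Human lymphoblastoid cells (LYMP1-002), 2500/well in complete medium, were exposed to compounds for 16 hr at 37 C. Dead-cell protease activity was read as bis-AAF-R110 fluorescence (Ex/Em 485/520), normalized to DMSO and 15 uM tetraoctylammonium bromide; AC50 from Hill fits.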

[2] = biological target: Estrogen receptor (Homo sapiens) (UniProt P03372); experiment: qHTS assay for small molecule agonists of estrogen receptor alpha signaling (AID 588514; calls by dose curve; also: nearly all actives have a fitted effect of over 70% in size; also: potency is read from the fitted curve at half-maximal effect;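 as to activation: 0% = vehicle only and 100% = reference agonist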); conditions: ER-alpha-UAS-bla HEK293, beta-lactamase ratio, 18 h; activation: at 76.8 µM (top of the series), percent of full estradiol response, vehicle zero unless noted
Outline: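 ER-alpha-UAS-bla GripTite HEK 293 cells in medium with 2% charcoal/dextran-treated FBS were treated with compound titrations at 37 C for 18 hrs; beta-lactamase reporter read by CCF4 fluorescence after 2 hrs at RT.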

[3] = biological target: Glucocorticoid receptor (Homo sapiens) (UniProt P04150); experiment: qHTS assay for small molecule antagonists of glucocorticoid receptor signaling (AID 588533; active = well fitted inhibition curve with a large enough effect in the signal ratio, with a control signal flat, not every such curve was filed as active; inconclusive = small, poorly fitted or top-dose-only effect, or effect the other way, or a change in a side signal; the % refers to the signal ratio;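 also: cells stimulated with 2 nM dexamethasone as agonist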; also: potency is read from the fitted curve at half-maximal effect; as to activity change, negative = inhibition: % is scaled to controls: 0 for no effect and ±100 for the full control effect); conditions: HeLa MMTV-bla, GRE beta-lactamase ratio, antagonist mode, 18 h; activity change, negative = inhibition: at 76.8 µM (top of the series)
[4] = biological target: Peroxisome proliferator-activated receptor delta (Homo sapiens) (UniProt Q03181); experiment: qHTS assay for small molecule antagonists of peroxisome proliferator-activated receptor delta signaling (AID 588535; active = well fitted inhibition curve with a large enough effect in the signal ratio, with a control signal flat, not every such curve was filed as active; inconclusive = small, poorly fitted or top-dose-only effect, or effect the other way, or a change in a side signal; inactive = no such curve, though single readings can be large or run the other way; the % refers to the signal ratio; also: potency is read from the fitted curve at half-maximal effect); conditions: HEK293T PPARd-UAS-bla, beta-lactamase FRET ratio, 18 h; activity change, negative = inhibition: at 76.7 µM (top of the series)
Outline: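 Cells were seeded at 4000 per well in assay medium containing 2% charcoal/dextran FBS and held 5 hrs at 37 C. Compounds were then added for 18 hrs. CCF4 substrate was applied for 2 hrs at room temperature before fluorescence reading.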

[5] = biological target: Retinoic acid receptor RXR-alpha (Homo sapiens) (UniProt P19793); experiment: qHTS assay for small molecule agonists of retinoid X receptor alpha signaling (AID 588544; calls by dose curve; also: potency is read from the fitted curve at half-maximal effect;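 as to activation: 0% = DMSO basal wells and 100% = reference agonist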); conditions: HEK293T RXRa-UAS-bla, beta-lactamase reporter, 18 h; activation: at 76.7 µM (top of the series)
[6] = biological target: Thyroid hormone receptor beta (Homo sapiens) (UniProt P10828); experiment: qHTS assay for small molecule antagonists of thyroid hormone receptor beta signaling (AID 588547; active = well fitted inhibition curve with a large enough effect in the signal ratio, with a control signal flat, not every such curve was filed as active; inconclusive = small, poorly fitted or top-dose-only effect, or effect the other way, or a change in a side signal; the % refers to the signal ratio; also: potency is read from the fitted curve at half-maximal effect;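 as to activity change % (negative = inhibition): cells stimulated with 0.4 nM T3 agonist during compound exposure; % is scaled to controls: 0 for no effect and ±100 for the full control effect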); conditions: TR-UAS-bla HEK293, beta-lactamase ratio, antagonist mode, 18 h
Outline: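 TR-UAS-bla GripTite HEK293 cells in 2% charcoal/dextran FBS medium; compounds 0.59 nM to 92 uM with T3 at 0.4nM final, 18 h at 37 C. Beta-lactamase read by CCF4 fluorescence (460/530 nm); Hill fits gave IC50 and efficacy.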

[7] = qHTS assay for small molecule agonists of the antioxidant response element (ARE) signaling pathway (AID 651741; active = well fitted activation curve with a large enough effect in the signal ratio; inconclusive = small, poorly fitted or top-dose-only effect, or effect the other way, or a change in a side signal; the % refers to the signal ratio; also: potency is read from the fitted curve at half-maximal effect; as to activation: % of control where 0% means no effect); conditions: HepG2 ARE-bla reporter, beta-lactamase FRET ratio, 16 h; activation: at 96 µM (top of the series)
Outline: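 HepG2 ARE-bla cells plated at 2,000 cells/well and incubated 5 h at 37 C/5% CO2 received 23 nL compound in DMSO. After 16 h at 37 C, LiveBLAzer B/G FRET substrate was applied for 2 h at room temperature and fluorescence read.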

[8] = qHTS assay to identify small molecules that stimulate interleukin-8 (IL-8) secretion (AID 651758; active = well fitted activation curve with a large enough effect in the signal ratio; inconclusive = small, poorly fitted or top-dose-only effect, or effect the other way, or a change in a side signal; the % refers to the signal ratio; also: potency is read from the fitted curve at half-maximal effect; as to activation: 0% is about no effect); conditions: HTRF ratio (665/615); activation: at 92.2 µM (top of the series)
Outline: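 THP-1 cells (2000/well) exposed to compound 16 h at 37 C; secreted IL-8 then detected by HTRF with cryptate- and XL665-labelled anti-IL-8 antibody pair after 1-3 h at room temperature.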

[9] = MultiTox-Fluor Cytotoxicity Assay - LYMP1-001 - Live Cells (AID 947); conditions: LYMP1-001 lymphoblastoid cells, live-cell protease fluorescence viability; series mostly up to 92.2 µM; also: potency is read from the fitted curve at half-maximal effect
[10] = Cell Viability - Hek293 (AID 427;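 active = compounds whose dose-response curve shows a full or clear partial loss of cell viability, called from curve shape rather than a numeric limit; inconclusive = weak partial curves or an effect only at the top dose; inactive = no dose-dependent loss of viability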;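 also: potency is read from the fitted curve at half-maximal effect; cells exposed to compound for 40 hours at 37 °C before reading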); conditions: qHTS
Outline: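 Luminescent ATP read-out (CellTiter-Glo, 20 min RT) after 40 hr compound exposure at 37 °C in complete medium. Signal normalized to DMSO (basal) and 100 uM tamoxifen (100% inhibition); concentration-response fitted with the standard Hill equation to give AC50.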

[11] = Cell Viability - H-4-II-E (AID 543); conditions: H-4-II-E rat hepatoma viability; series mostly up to 92.2 µM; also: potency is read from the fitted curve at half-maximal effect; nearly all actives have a fitted effect of over 35% in size
Outline: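 Rat hepatoma H-4-II-E cells (1500/well) were plated, incubated 5 hr at 37 °C, then exposed to compounds for 40 hr at 37 °C. Cellular ATP was read by CellTiter-Glo luminescence; AC50 came from Hill-equation fits of concentration-response data.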

[12] = biological target: Estrogen receptor (Homo sapiens) (UniProt P03372); experiment: qHTS assay for small molecule antagonists of estrogen receptor alpha signaling (AID 588513; active = well fitted curve in the direction sought with a large enough effect in the signal ratio, with a control signal flat, not every such curve was filed as active; inconclusive = small, poorly fitted or top-dose-only effect, or effect the other way, or a change in a side signal; inactive = no such curve, though single readings can be large or run the other way; the % refers to the signal ratio; also: potency is read from the fitted curve at half-maximal effect); conditions: ER-alpha-UAS-bla HEK293, beta-lactamase ratio, antagonist mode; activity, negative = inhibition: at 76.9 µM (top of the series)
Outline: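 Fluorescence from CCF4 substrate after 2 h at room temperature gave reporter activity; cells had been exposed to compound and 0.5nM 17-beta-estradiol for 18 h at 37 C. Hill-equation fitting yielded IC50 and maximal response.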

[13] = biological target: Peroxisome proliferator-activated receptor gamma (Homo sapiens) (UniProt P37231); experiment: qHTS assay for small molecule agonists of peroxisome proliferator-activated receptor gamma signaling (AID 588536; active = well fitted curve in the direction sought with a large enough effect in the signal ratio, with a control signal flat, not every such curve was filed as active; inconclusive = small, poorly fitted or top-dose-only effect, or effect the other way, or a change in a side signal; inactive = no such curve, though single readings can be large or run the other way; the % refers to the signal ratio; also: potency is read from the fitted curve at half-maximal effect;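 as to activation: 0% = DMSO basal wells and 100% = rosiglitazone at 2 µM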); conditions: HEK293 PPARg-UAS-bla, beta-lactamase ratio, 16 h; activation: at 76.7 µM (top of the series), percent of rosiglitazone response, DMSO as zero
Outline: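 PPAR-gamma-UAS-bla HEK293 cells in medium with 1% charcoal/dextran-treated FBS were exposed to compounds for 16 h at 37 C. Beta-lactamase activity was read with CCF4 substrate (405 nm excitation, 460/530 nm emission).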

[14] = biological target: Peroxisome proliferator-activated receptor gamma (Homo sapiens) (UniProt P37231); experiment: qHTS assay for small molecule antagonists of peroxisome proliferator-activated receptor gamma signaling (AID 588537; active = well fitted inhibition curve with a large enough effect in the signal ratio, with a control signal flat, not every such curve was filed as active; inconclusive = small, poorly fitted or top-dose-only effect, or effect the other way, or a change in a side signal; the % refers to the signal ratio; also: potency is read from the fitted curve at half-maximal effect;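 also: reporter cells co-stimulated with 50 nM rosiglitazone agonist during compound treatment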; as to activity, negative = inhibition: % of control where 0% means no effect); conditions: HEK293 PPARg-UAS-bla, beta-lactamase ratio, antagonist mode
Outline: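 Step one: plate 3000 HEK293 UAS-bla cells per well in medium with 1% stripped serum and hold 6-6.5 h at 37 C. Step two: add compound and 50 nM agonist for 16 h. Step three: CCF4 loading, fluorescence read.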

[15] = biological target: Retinoic acid receptor RXR-alpha (Homo sapiens) (UniProt P19793); experiment: qHTS assay for small molecule antagonists of retinoid X receptor alpha signaling (AID 588546; active = well fitted inhibition curve with a large enough effect in the signal ratio, with a control signal flat, not every such curve was filed as active; inconclusive = small, poorly fitted or top-dose-only effect, or effect the other way, or a change in a side signal; inactive = no such curve, though single readings can be large or run the other way; the % refers to the signal ratio; also: potency is read from the fitted curve at half-maximal effect;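 as to max response: cells stimulated with 9-cis-retinoic acid as agonist; % is scaled to controls: 0 for no effect and ±100 for the full control effect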); conditions: HEK293T RXRa-UAS-bla, beta-lactamase ratio, antagonist mode
Outline: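 Beta-lactamase reporter inhibition, read as CCF4 fluorescence ratio (ex 405, em 460/530 nm) after 2 h at RT. HEK293T UAS-bla cells, 2500/well, were stimulated with 9-cis-RA at 500 or 100 nM final alongside test compound for 18 h at 37 C.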

[16] = qHTS assay for small molecule antagonists of the retinoid-related orphan receptor gamma (ROR-gamma) signaling pathway - cell viability counter screen (AID 720652; active = well fitted curve in the direction sought with a large enough effect in the repeat runs; inconclusive = weak or mixed curves; inactive = no such curve, though single readings can be large; an effect the other way counts as inactive or inconclusive;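 also: potency is read from the fitted curve at half-maximal effect; compound exposure lasted 16 hr before ATP read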); conditions: RORgamma reporter cell line viability counter screen; series mostly up to 92.2 µM
Outline: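 Counter screen in CHO cells carrying TET-inducible ROR-gamma and an ROR response element-luciferase reporter; cells plated 5 hr, compound pinned, doxycycline added, then 16 hr at 37 C. Viability read as intracellular ATP by CellTiter-Glo luminescence.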

[17] = Cell Viability - LYMP2-005 (AID 967); conditions: LYMP2-005 lymphoblastoid cell viability; series mostly up to 92.2 µM;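 also: potency is read from the fitted curve at half-maximal effect; cells exposed to compound for 24 h at 37 °C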
Outline: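 Acute cytotoxicity is scored as a concentration-dependent drop in intracellular ATP in human lymphoblastoid LYMP2-005 cells after 24 h compound treatment. ATP is quantified by luciferase luminescence, and AC50 is derived by Hill-equation modelling.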

[18] = biological target: Thyroid hormone receptor beta (Homo sapiens) (UniProt P10828); experiment: qHTS assay for small molecule agonists of thyroid hormone receptor beta signaling (AID 588545; calls by dose curve;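 also: 0% = DMSO only and 100% = 10 nM T3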); conditions: TR-UAS-bla GripTite HEK 293, beta-lactamase ratio, agonist mode, 18 h; activation: at 76.7 µM, percent of T3 response, DMSO as zero
Outline: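 Stimulation of a TR-driven beta-lactamase reporter was quantified in GripTite HEK 293 cells. Compound series ran for 18 hrs; curves were normalized to T3 and DMSO controls and fitted to yield EC50.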

[19] = activity, negative = inhibition: at 76.8 µM (top of the series)
Tags tell the direction and shape of the fitted curve or compound fluorescence and quenching.

Sequence of UniProt P03372 (P03372 whole entry, looked up): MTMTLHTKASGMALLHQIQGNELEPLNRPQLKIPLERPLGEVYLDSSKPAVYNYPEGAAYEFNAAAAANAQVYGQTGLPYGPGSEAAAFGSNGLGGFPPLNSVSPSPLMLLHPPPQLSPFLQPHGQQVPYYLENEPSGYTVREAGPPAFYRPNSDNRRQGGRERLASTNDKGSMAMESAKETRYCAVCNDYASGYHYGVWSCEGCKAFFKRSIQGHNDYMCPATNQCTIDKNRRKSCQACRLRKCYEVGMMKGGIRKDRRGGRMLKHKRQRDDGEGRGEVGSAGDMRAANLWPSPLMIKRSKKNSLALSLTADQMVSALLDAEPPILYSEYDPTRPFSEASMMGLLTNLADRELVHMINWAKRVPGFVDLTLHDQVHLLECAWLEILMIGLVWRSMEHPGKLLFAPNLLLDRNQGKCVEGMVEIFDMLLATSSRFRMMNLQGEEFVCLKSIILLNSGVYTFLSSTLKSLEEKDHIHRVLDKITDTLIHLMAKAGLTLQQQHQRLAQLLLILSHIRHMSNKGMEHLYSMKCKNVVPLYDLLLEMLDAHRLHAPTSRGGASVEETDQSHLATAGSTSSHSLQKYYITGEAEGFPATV
Sequence of UniProt P10828 (P10828 whole entry, looked up): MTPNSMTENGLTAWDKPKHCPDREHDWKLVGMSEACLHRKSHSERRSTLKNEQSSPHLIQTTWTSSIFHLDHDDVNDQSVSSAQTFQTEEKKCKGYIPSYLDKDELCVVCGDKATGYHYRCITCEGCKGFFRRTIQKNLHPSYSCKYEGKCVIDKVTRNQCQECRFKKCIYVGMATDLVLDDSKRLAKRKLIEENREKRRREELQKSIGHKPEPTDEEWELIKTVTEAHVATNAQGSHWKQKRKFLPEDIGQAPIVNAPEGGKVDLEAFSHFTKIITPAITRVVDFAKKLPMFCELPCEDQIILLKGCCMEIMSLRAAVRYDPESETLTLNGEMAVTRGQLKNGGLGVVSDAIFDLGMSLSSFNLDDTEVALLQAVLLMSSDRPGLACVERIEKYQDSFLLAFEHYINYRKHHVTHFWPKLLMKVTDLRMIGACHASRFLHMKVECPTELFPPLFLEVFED
Sequence of UniProt Q03181 (Q03181 whole entry, looked up): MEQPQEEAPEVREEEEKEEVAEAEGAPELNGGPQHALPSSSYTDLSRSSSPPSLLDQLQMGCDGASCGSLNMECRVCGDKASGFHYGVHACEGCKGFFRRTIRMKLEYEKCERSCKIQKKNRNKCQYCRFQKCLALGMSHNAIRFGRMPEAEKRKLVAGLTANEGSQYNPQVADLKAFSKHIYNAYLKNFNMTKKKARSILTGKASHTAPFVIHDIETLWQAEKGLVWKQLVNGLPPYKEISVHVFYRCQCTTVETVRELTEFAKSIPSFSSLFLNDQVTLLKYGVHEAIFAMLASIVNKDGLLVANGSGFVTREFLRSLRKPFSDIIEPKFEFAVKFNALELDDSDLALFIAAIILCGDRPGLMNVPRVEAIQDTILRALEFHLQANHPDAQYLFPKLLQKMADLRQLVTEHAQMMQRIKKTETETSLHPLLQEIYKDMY
Sequence of UniProt P19793 (P19793 whole entry, looked up): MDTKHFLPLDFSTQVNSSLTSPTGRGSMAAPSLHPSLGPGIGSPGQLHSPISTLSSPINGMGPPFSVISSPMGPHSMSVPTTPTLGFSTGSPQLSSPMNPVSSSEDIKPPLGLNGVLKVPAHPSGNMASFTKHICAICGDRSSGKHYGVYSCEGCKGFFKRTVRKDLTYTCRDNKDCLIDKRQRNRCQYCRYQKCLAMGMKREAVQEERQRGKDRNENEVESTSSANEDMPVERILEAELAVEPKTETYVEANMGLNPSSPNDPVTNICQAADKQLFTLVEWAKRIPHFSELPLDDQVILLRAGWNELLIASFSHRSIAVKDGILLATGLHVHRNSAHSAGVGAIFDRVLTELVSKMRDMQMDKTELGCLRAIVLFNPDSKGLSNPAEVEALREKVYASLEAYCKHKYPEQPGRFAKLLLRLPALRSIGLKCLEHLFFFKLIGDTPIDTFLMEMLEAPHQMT

NC1CCC(CC2CCC(N)CC2)CC1 (stereo not drawn)
inactive: Potency [2] | Potency [3]
active: Potency [1] 3.98 µM
inconclusive: activity change, negative = inhibition [4] -19.4% | activation [5] -13.7% | Potency [6] 0.01 µM [side channel, falling, full curve, poor fit] | Potency [7] 53.1 µM [activator, partial curve, poor fit] | activation [8] 2.89%

O=C(O)COc1ccc(Cl)cc1Cl
inconclusive: Potency [9] 1.58 µM [cytotoxic, full curve] | activity change, negative = inhibition [3] 9.95% | activation [5] -32.4% | activation [8] -18.7% and -13%

Oc1cc(Cl)c(Cl)c(Cl)c1Cl
active: Potency [7] 11.9 µM
inconclusive: Potency [10] 73.7 µM [partial curve] | Potency [11] 79.4 µM [falling, single point] | Potency [1] 39.8 µM [cytotoxic, partial curve, poor fit] | Potency [12] 28.2 µM [falling, partial curve, poor fit] | Potency [2] 15.8 µM [side channel, rising, partial curve] | activity change, negative = inhibition [4] -17.8% | Potency [13] 5.62 µM [inhibitor, full curve, poor fit] | Potency [14, 19] 35.5 µM [side channel, rising, partial curve] | Potency [5] 28.2 µM [inhibitor, full curve, poor fit] | max response [15] -52.9% | Potency [6] 44.7 µM [fluorescent, partial curve, poor fit] | Potency [8] 75 µM [activator, single point] | Potency [16] 42.2 µM [cytotoxic, partial curve, poor fit]

C[C@H]1CCCC(=O)CCC/C=C/c2cc(O)cc(O)c2C(=O)O1
active: Potency [12] 14.1 µM [inconclusive] | Potency [2] 0.01 µM
inconclusive: Potency [11] 39.8 µM [falling, partial curve] and 50.1 µM [falling, partial curve] | Potency [17] 1 µM [cytotoxic, full curve, poor fit] | activity change, negative = inhibition [4] -5.11% | activation [13] -16.2% | Potency [14, 19] 22.4 µM [side channel, rising, single point] | activity, negative = inhibition [14, 19] 4.05% | activation [5] -32.2% | Potency [15] 15.8 µM [inhibitor, full curve] | max response [15] -43.6% | Potency [6] 39.8 µM [side channel, rising, partial curve, poor fit] | Potency [7] 53.1 µM [inhibitor, partial curve, poor fit] and 48.6 µM [inhibitor, partial curve] | activation [7] -8.69% | Potency [8] 75 µM [inhibitor, single point] and 59.6 µM [inhibitor, single point] | Potency [16] 29.8 µM [cytotoxic, partial curve] and 37.6 µM [cytotoxic, partial curve]
inactive: activity, negative = inhibition ([14]; at 76.8 µM (top of the series)) 2.5%

C=CCc1ccc(OC)cc1
inconclusive: activation [18] -16% | activation [8] 10.9%
inactive: Potency [1] | Potency [4] | Potency [14, 19] | activity change % (negative = inhibition) [6] -7.69%

O=C1C2(Cl)C3(Cl)C4(Cl)C(Cl)(Cl)C5(Cl)C3(Cl)C1(Cl)C5(Cl)C24Cl (stereo not drawn)
inconclusive: Potency [4] 39.8 µM [side channel, rising, partial curve, poor fit] | activity change, negative = inhibition [4] -72.2% and -30.1% | activation [18] 125% | Potency [15] 50.1 µM [cytotoxic, side channel, single point] and 44.7 µM [inhibitor, partial curve, poor fit] | max response [15] -66.7% | Potency [6] 28.2 µM [cytotoxic, side channel, full curve, poor fit] and 50.1 µM [cytotoxic, side channel, single point]
active: Potency [11] 31.6 µM and 50.1 µM | Potency [9] 39.8 µM and 50.1 µM | Potency [1] 20 µM and 15.8 µM | Potency [17] 39.8 µM | Potency [3] 39.8 µM | Potency [7] 66.8 µM | Potency [16] 26.6 µM and 29.8 µM
44.7 µM (active) and inactive: Potency [14, 19]

— PubChem BioAssay (NCATS)
